According to PubChem BioAssay AID488969 (Vanderbilt High Throughput Screening Facility, 2010):
Over roughly 110,000 compounds, “z-score” has its median near -0.1; the highest 2% begin near 2. The list shows a part of the results. Calls of active or inactive are those of the source.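 Rule for the calls: active = z-score in the third read window above 3 or below -3; inactive = the rest.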

target: Metabotropic glutamate receptor 8 (Rattus norvegicus) (UniProt P70579); experiment: mGluR8 Gi/Go-coupled signaling modulation – cell-based, rat, thallium flux, HTS, primary screen (AID 488969); details: HEK293 rat mGluR8, GIRK (G protein-gated inwardly rectifying potassium channel) thallium flux, FluoZin2; at 10 µM; stronger effect = higher value; submaximal glutamate (EC20) added with thallium
Sequence of UniProt P70579 (P70579 whole entry, looked up): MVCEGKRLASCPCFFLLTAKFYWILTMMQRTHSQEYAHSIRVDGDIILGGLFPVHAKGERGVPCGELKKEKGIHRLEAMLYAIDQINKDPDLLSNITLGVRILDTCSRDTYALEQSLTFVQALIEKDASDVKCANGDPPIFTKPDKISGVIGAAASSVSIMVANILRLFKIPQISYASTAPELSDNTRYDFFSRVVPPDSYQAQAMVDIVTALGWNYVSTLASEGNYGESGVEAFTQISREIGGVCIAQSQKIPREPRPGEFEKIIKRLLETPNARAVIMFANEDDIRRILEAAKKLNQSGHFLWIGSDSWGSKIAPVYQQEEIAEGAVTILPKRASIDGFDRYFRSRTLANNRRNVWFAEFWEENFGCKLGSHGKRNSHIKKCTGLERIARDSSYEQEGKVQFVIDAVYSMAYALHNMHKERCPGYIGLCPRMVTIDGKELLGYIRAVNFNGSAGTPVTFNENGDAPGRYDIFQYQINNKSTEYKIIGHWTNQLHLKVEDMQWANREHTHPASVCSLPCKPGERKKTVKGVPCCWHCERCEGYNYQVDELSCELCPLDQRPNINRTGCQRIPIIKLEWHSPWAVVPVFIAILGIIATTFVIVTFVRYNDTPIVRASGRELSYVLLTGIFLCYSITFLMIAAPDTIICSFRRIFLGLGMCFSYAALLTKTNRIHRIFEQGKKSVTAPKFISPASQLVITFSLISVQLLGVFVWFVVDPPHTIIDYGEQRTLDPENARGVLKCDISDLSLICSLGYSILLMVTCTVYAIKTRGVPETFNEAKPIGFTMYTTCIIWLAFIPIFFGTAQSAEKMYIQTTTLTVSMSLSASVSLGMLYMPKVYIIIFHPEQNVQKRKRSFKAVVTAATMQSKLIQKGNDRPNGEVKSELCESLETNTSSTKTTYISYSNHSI

Row | SMILES | z-score
1 | Cc1cc(C)cc(NC(=O)C2CCCN(c3nccc(C)n3)C2)c1 (centres undefined) | 0.107
2 | O=C1NC2CCCCC2NC1CC(=O)N1CCN(c2ccccc2)CC1 (centres undefined) | -0.0836
3 | CCOc1nnnc2c1sc1nc(N3CCOCC3)c3c(c12)CCCC3 | 0.00985
4 | CC(NC(=O)Cn1c(=O)oc2cc(S(=O)(=O)N3CCCC3)ccc21)c1ccccc1 (centres undefined) | -0.00219
5 | O=C(NCc1ccco1)C1CC(c2cccc([N+](=O)[O-])c2)=NO1 (centres undefined) | -0.0826
6 | COc1ccc2cc3c(N)nn(C(=O)Cc4ccccc4OC)c3nc2c1 | -0.119
7 | O=C(N/N=C/c1ccc(OC(=O)c2cccs2)cc1)c1ccc(F)cc1 | -0.195
8 | COc1ccc(CNc2nc(-c3ccccc3)nn2C(=O)c2cccs2)cc1 | 0.501
9 | CCCc1cc(=O)oc2c(C)c(OCC(=O)c3ccc(N4CCCC4)cc3)ccc12 | -1.57
10 | CCCSc1nnc(Nc2ccccc2C)s1 | active: 4.96
11 | Cc1ccc(C)c(NC(=O)COC(=O)c2cccc3c2C(=O)c2ccccc2C3=O)c1 | -0.271
12 | CCOc1cccc2cc(-c3nnc(NCc4ccc5c(c4)OCO5)s3)c(=O)oc12 | -0.559
13 | Cc1cc(C)c(S(=O)(=O)Nc2ccc(OCC(=O)O)cc2)c(C)c1 | -0.256
14 | CS(=O)(=O)c1ccc2nc(NC(=O)CN3CCCCCC3)sc2c1 | 0.118
15 | Cc1cc(NC(=O)CCc2ccc(C)o2)no1 | 0.322
16 | CCOP(=O)(OCC)c1nc(/C=C/c2ccccc2)oc1NCc1ccccc1 | -2.18
17 | CCNC(=O)c1ccc(NS(=O)(=O)c2ccccc2)cc1 | -0.0317
18 | CCN1CCN(c2nc3c(C)cccn3c(=O)c2/C=C(\C#N)S(=O)(=O)c2ccccc2)CC1 | -0.231
19 | N#CC1=C(SCc2ccc(C#N)cc2)N=C(N)C(c2nc(-c3ccccc3)cs2)C12CCCCC2 (centres undefined) | 0.177
20 | CCSc1ncc(/C=N/Nc2ccccc2)n1C | -0.292
21 | COc1ccc2c(CC(=O)Nc3ccc(OC)c(S(=O)(=O)N4CCOCC4)c3)coc2c1 | 0.0443
22 | CC1CCC/C(=N\Nc2ccc(Cl)c(C(=O)O)c2)C1 (centres undefined) | 0.274

Row | SMILES | z-score
23 | O=C1c2ccccc2C(=O)c2c1cccc2N1CCN(Cc2ccccc2)CC1 | -0.0703
24 | Cc1cc(C)c(NC(=O)/C(=C/c2ccccc2)c2ccccc2)c(C)c1 | -0.887
25 | Cc1ccc(NC(=O)/C(=C\c2cccc([N+](=O)[O-])c2)NC(=O)c2cccs2)cc1 | -0.0227
26 | CCN(CC)c1ccc(NC(=O)Cn2ncc3c(C)n(Cc4ccccc4F)c(C)c3c2=O)c(C)c1 | -0.325
27 | Cc1nnc(N2C(=O)C(O)=C(C(=O)c3ccco3)C2c2ccc(C(C)(C)C)cc2)s1 (centres undefined) | -0.554
28 | Brc1ccc(-n2cccc2/C=N/n2cnnc2)cc1 | -0.152
29 | Cc1ccc(C(=O)NC(Cc2c[nH]c3ccccc23)C(=O)O)cc1 (centres undefined) | 1.07
30 | Cc1ccccc1OCC(=O)Nc1cc(Cl)ccc1Oc1ccccc1 | -0.233
31 | N#Cc1c(NC(=S)NC(=O)c2ccccc2)sc2c1CCC2 | 0.849
32 | COc1cc2c(cc1OC)C(c1cccc(OC)c1OC)CC(=O)N2 (centres undefined) | 0.0414
33 | Cc1ccc(N2CC(C(=O)Nc3ccncc3)CC2=O)cc1 (centres undefined) | -0.196
34 | O=[N+]([O-])c1ccc(/C=C/C2=NN(c3ccccc3)C(c3ccco3)C2)cc1 (centres undefined) | -0.0906
35 | COc1cc(C2C3=C(CC(C)(C)CC3=O)N(C)C(=O)N2C)cc(OC)c1OC (centres undefined) | 0.176
36 | O=C(COC(=O)c1ccc(N2CCOCC2)c([N+](=O)[O-])c1)Nc1ccc2c(c1)OCO2 | -0.12
37 | COc1cc(OC)c(NC(=O)CCc2ccccc2)cc1Cl | -0.786
38 | Cc1c(=O)n(OCc2ccccc2)c2ccccc2[n+]1[O-] | -0.129
39 | O=C(CN1CCN(c2ccccc2Cl)CC1)NC1CCCc2ccccc21 (centres undefined) | -0.381
40 | COc1cccc(Cn2cnc3c(NS(=O)(=O)c4ccc(Cl)cc4Cl)c(C)c(C)cc32)c1 | 1.09
41 | COc1ccccc1CNC(=O)c1ccc(S(=O)(=O)N2CCCC2)cc1 | 1.01
42 | COc1ccccc1NS(=O)(=O)c1ccc(O)cc1 | 0.0186
43 | C=CCN(c1ccccc1)S(=O)(=O)c1cccc(C(=O)Oc2ccc3c(C)cc(=O)oc3c2)c1 | -0.205
44 | Cc1ccc(CNC(=O)C2CCC(=O)N2C2CCCCC2)cc1 (centres undefined) | -0.357

Row | SMILES | z-score
45 | CC(Oc1ccc(Cl)cc1)c1ccnn1S(C)(=O)=O (centres undefined) | 1.68
46 | Cc1c(NC(=O)C(C)N2C(=O)C3C4C=CC(C4)C3C2=O)c(=O)n(-c2ccccc2)n1C (centres undefined) | 0.0248
47 | CCOC(=O)/C(=C\c1cn(C)c2ccccc12)[N+](=O)[O-] | -0.094
48 | C=CC(O)(C#CCN(CC)CC)c1ccccc1 (centres undefined) | 0.2
49 | Cc1ccc(CN(C(=O)c2cc3ccccc3oc2=O)C2CCS(=O)(=O)C2)cc1 (centres undefined) | -0.00405
50 | CS(=O)(=O)N1CCN(c2ccccc2NC(=O)c2cccc3ccccc23)CC1 | -0.227
51 | O=C(Nc1ccccc1)N1CCCC(c2nc(-c3ccc(F)cc3)no2)C1 (centres undefined) | -0.45
52 | O=C(O)[C@H]1CCCC[C@H]1C(=O)Nc1cc([N+](=O)[O-])ccc1F | -0.728
53 | Cc1ccc(OCC(=O)N/N=C2/SCC(=O)N2Cc2ccccc2)cc1 | -0.163
54 | O=C(Nc1ccc(Cl)cn1)Nc1ccccc1Cl | -0.18
55 | O=c1c(-c2cccc3ccccc23)[n+]([O-])c2ccccc2n1O | 1.08
56 | O=C(Nc1ccccc1N1CCCCC1)c1ccc(-c2cccc(Cl)c2)o1 | -0.572
57 | COc1ccccc1Oc1coc2cc(O)ccc2c1=O | -0.815
58 | Cc1c(Cl)c(C(=O)NNC(=S)NCc2ccco2)nn1C | 0.977
59 | CSCCC(Nc1ccc(S(=O)(=O)N2CCOCC2)cc1[N+](=O)[O-])C(=O)OCC(=O)N(C(C)C)C(C)C (centres undefined) | -0.22
60 | CN1/C(=C\C(=S)NC(=O)c2cccc(Br)c2)C(C)(C)c2ccccc21 | -0.0589
61 | CN1c2ccsc2C(O)=C(C(=O)Nc2ccccc2)S1(=O)=O | -0.00654
62 | Cc1ccc(Cn2cnc3c(nnn3Cc3ccc(Cl)cc3)c2=O)cc1 | 0.0536
63 | CCN(CC)c1ccc(CC(=O)NC(C)Cc2ccccc2)cc1 (centres undefined) | -0.346
64 | Cc1cccc(Oc2ccccc2N)c1 | -0.0133
65 | Cc1ccc(NC(=O)Cn2c(O)c(N=NC(=O)c3cc4ccccc4cc3O)c3ccccc32)cc1 | -0.306
66 | OC(COCc1cccs1)CN1CCN(c2ccccc2Cl)CC1 (centres undefined) | -0.266

Row | SMILES | z-score
67 | COC(=O)CNC(=O)c1c(-c2c(Cl)cccc2Cl)noc1C | -0.207
68 | CCc1cccc(OCCn2ccnc2)c1 | -0.244
69 | Cc1nc2ccc(NC(=O)c3ccc(Cl)c(NC(=O)c4cccs4)c3)cc2s1 | -0.465
70 | Cc1nn(Cc2cccc(C(=O)Nc3ccn(Cc4c(F)c(F)cc(F)c4F)n3)c2)c(C)c1[N+](=O)[O-] | -1.37
71 | CCCCn1nnnc1SCC(=O)Nc1ccc(F)cc1 | -0.316
72 | O=C(NC(=S)Nc1ccc(N2CCCCC2)c(Cl)c1)c1cccs1 | active: 8.72
73 | Cc1cc(N2CCCCC2)c(F)cc1[N+](=O)[O-] | 0.131
74 | CC1CN(Cc2ccc(Cl)cc2Cl)CC(C)O1 (centres undefined) | -0.415
75 | COc1ccc(Cl)cc1C(=O)N(Cc1nc(-c2cccc(C)c2)no1)C(C)C | -0.251
76 | Nc1nnc(Sc2ccc(Cl)cc2[N+](=O)[O-])s1 | 0.0654
77 | CC1(C)Cc2c(ccc3ccccc23)/C(=C/C(=O)N2CCCCC2)N1 | 0.884
78 | CCOC(=O)c1nnc(-c2ccc(C)cc2)nc1Sc1cccc(Cl)c1 | -0.0701
79 | CCc1nnc(NC(=O)CCN2C(=O)c3ccccc3C2=O)s1 | 0.727
80 | O=C(CSc1nc2ccccc2[nH]1)NC1CCS(=O)(=O)C1 (centres undefined) | 0.148
81 | Cc1ccc2c(c1)cc(CN(CCc1ccccc1)C(=O)N1CCOCC1)c1nnnn12 | -0.223
82 | O=C(CSc1nnc(Cc2cccs2)n1-c1ccccc1)NCc1ccc2c(c1)OCO2 | -0.498
83 | O=C1CC(c2cccc(Cl)c2)Cc2nc(N3CCOCC3)ncc21 (centres undefined) | -0.835
84 | Cc1cccc(C(=O)Oc2ccccc2/C=N/NC(=O)c2ccc(NC(=O)C(C)(C)C)cc2)c1 | -0.83
85 | C=CCNC(=O)c1onc(CSc2cccc(C)c2)c1C(=O)O | -0.196
86 | O=C(CCC(=O)N1CCN(S(=O)(=O)c2ccccc2)CC1)c1cccs1 | 0.331
87 | CCOC(=O)C1CCCN(C(=S)Nc2cc(C)cc(C)c2)C1 (centres undefined) | 0.031
88 | COc1cc(/C=N\Nc2nc3ccccc3[nH]2)cc(OC)c1OC | -0.286

Row | SMILES | z-score
89 | O=C(NCc1ccc(Cl)cc1)c1cnccn1 | -0.0849
90 | Oc1ccc(C=NCC2COc3ccccc3O2)cc1 (centres undefined) | -0.00244
91 | Cc1ccc(/C=N/N2C(=S)SC(C)(C)C2N(O)C(=O)Nc2ccc([N+](=O)[O-])cc2)cc1 (centres undefined) | -0.809
92 | CC(=O)N1CCCc2cc(S(=O)(=O)CCC(=O)N3CCN(c4cccc(C)c4)C(C)C3)ccc21 (centres undefined) | -0.267
93 | Cc1c(Br)cc(C(=O)N2CCN(CCO)CC2)c(C)c1C | -0.0112
94 | COC(=O)c1ccc2c(=O)n(C3CCCCC3)c(SCC#N)nc2c1 | active: 3.63
95 | COc1ccccc1S(=O)(=O)Cc1ccc(C(=O)NCc2cccnc2)o1 | -0.0398
96 | O=C(NC1=NCCS1)c1sc2ccccc2c1Cl | -0.198
97 | COc1cccc(-c2cc(C(=O)NN3CCOCC3)c3ccccc3n2)c1 | -0.134
98 | Cn1c(=O)n(Cc2ccc(Cl)cc2)c2ccccc21 | -0.403
99 | Fc1ccc(CN2CCCCCCC2)cc1 | 0.111
100 | Cc1cc(NC(=O)c2cc(CC(C)C)on2)n(-c2ccccc2)n1 | 0.79
101 | O=C(CSc1ccccc1)Nc1cccc(S(=O)(=O)N2CCCC2)c1 | 0.307
102 | O=C(COc1ccc(Cl)cc1)NCc1nnc2c3ccccc3c(-c3ccccc3)nn12 | -0.373
103 | CCOC(OCC)P(=O)(C(C)C)C(C)C | 0.537
104 | CCOC(=O)c1sc2nc3c(SCCC#N)cc(C(=O)c4cc(F)ccc4O)cn3c(=O)c2c1C | -0.261
105 | O=C(Nc1ccc2c(c1)CCC2)c1ccc(F)cc1 | 0.17
106 | CC(/C=C/c1ccco1)=N\NC(=O)c1cccnc1 | -0.148
107 | Cc1nc(-c2ccccc2O)n(-c2ccccc2)n1 | 0.0312
108 | Clc1ccc(Cl)c(OCc2cc(-c3ccccc3Cl)on2)c1 | -1.04
109 | COc1ccc(NC2=NC(=S)N(c3cccc(C)c3)C23CCCCC3)cc1 | 1.22
